From paper PMC5587286, “Direct versus indirect actions of ghrelin on hypothalamic NPY neurons” (PLoS ONE, 2017)
Where two headings read alike, the source gives them in different places.

System: isolated NPY-GFP neurons from the VMH

Oc1cc2ccccc2c2ccccc12 [9-phenanthrol] was tested, and the “effect on the action of ghrelin” value was “completely and reversibly block”.

In the case of NC(=O)c1ncn([C@@H]2O[C@H](CO)[C@@H](O)[C@H]2O)c1N [AICAR, aminoimidazole carboxamide ribonucleotide], the “effect on [Ca2+]c when applied alone” value is reported as “produced the same effect on NPY-GFP neurons as 100 pM ghrelin”.

In the case of N#Cc1cc2[nH]c(=O)c(=O)[nH]c2cc1[N+](=O)[O-] [CNQX], the “effect on ghrelin action ([Ca2+]c increase)” value (“effect … ([Ca2+]c increase)” for short) is reported as “no significant effect”.

With C=C[C@@]1(C)CC(=O)[C@]2(O)[C@@]3(C)[C@@H](O)CCC(C)(C)[C@@H]3[C@H](O)[C@H](OC(C)=O)[C@@]2(C)O1 [FSK, forskolin] the “effect on [Ca2+]c when applied alone” value (FSK 10 μM, compared with ghrelin 100 pM) was “mimicked the action of ghrelin”.

With NCCCC(=O)O [GABA, Gamma aminobutyric acid] the “effect on ghrelin activation” value (GABA 5 pM to 1 μM, ghrelin 100 pM, mean of 12 neurons) was “suppresses ghrelin activation in a dose-dependent fashion”.

With O=S(=O)(NCCNC/C=C/c1ccc(Br)cc1)c1cccc2cnccc12 [H-89] the “inhibition of ghrelin action” value (H-89 5 μM, ghrelin 100 pM, data not shown) was ~ 40% and the “inhibition of the stimulatory effect of ghrelin” value (H-89 10 μM, ghrelin 100 pM) was greater than 50%.

With [Ni+2] [Ni^2+] the “effect on ghrelin action” value was “markedly suppress ghrelin action”.

For Nc1ncnc2c1ncn2[C@@H]1O[C@@H]2COP(O)(=S)O[C@H]2[C@H]1O (stereo partly drawn) [Rp-cAMP], the “inhibition of ghrelin action” value (Rp-cAMP 20 μM, ghrelin 100 pM, data not shown) was ~ 40%.

O=C(O)c1ccc2c3c1cccc3c(=O)n1c3ccccc3nc21 [STO-609] was tested, and the “effect on ghrelin activation” value (STO-609 1 μM, ghrelin 100 pM) was “partially blocks ghrelin activation”.

With CC1(C)C[C@@H](CN2CCC(F)(CNC(=O)c3cc(Cl)cc(Cl)c3)CC2)CCO1 [TTA-P2] the “effect on ghrelin action” value (TTA-P2 1 μM, ghrelin 100 pM) was “partially inhibited ghrelin action”.

With NC1=N[C@H](O)[C@H]2[C@H]3O[C@]4(O)O[C@@H]([C@@H](O)[C@@]2(N1)[C@@H]4O)[C@]3(O)CO [TTX, tetrodotoxin] the “effect on the action of ghrelin” value was “has no effect”.

With C/C=C(/C)C(=O)O[C@H]1C(C)=C2[C@H]([C@@H]1OC(=O)CCCCCCC)[C@@](C)(OC(C)=O)C[C@H](OC(=O)CCC)[C@@]1(O)[C@H]2OC(=O)[C@@]1(C)O [Thapsigargin, thapsigargin] the “effect … ([Ca2+]c increase)” value was “did not block ghrelin action” and the “effect on basal [Ca2+]c” value (thapsigargin 0.5 μM) was “elevated basal [Ca^2+]c somewhat”.

With COc1ccc2c(c1)CC[C@@H]1[C@@H]2CC[C@]2(C)[C@@H](NCCCCCCN3C(=O)C=CC3=O)CC[C@@H]12 [U73122] the “reduction of subsequent ghrelin activation” value (U73122 1 μM, 15 minute preincubation, ghrelin 100 pM) was greater than 50%.

For c1cc(-c2cnn3cc(-c4ccc(OCCN5CCCCC5)cc4)cnc23)ccn1 [compound C], the “effect on NPY-GFP neuron activation by ghrelin and FSK” value (Compound C 30 μM, data not shown) was “markedly inhibited” and the “effect on oligomycin-induced [Ca2+]c increase” value (compound C 30 μM, oligomycin 50 nM) was “completely blocked”.

With CC1=NS(=O)(=O)c2cc(Cl)ccc2N1 [diazoxide] the “effect on [Ca2+]c when applied alone” value (diazoxide 200 μM) was “reversibly activated the [Ca^2+]c response in all NPY-GFP neurons” and the “effect on neurons activated by compound A or by ghrelin” value (diazoxide 200 μM) was “no inhibitory effect”.

With O=C(O)c1ccccc1Nc1cccc(C(F)(F)F)c1 [flufenamic acid] the “effect on the action of ghrelin” value (flufenamic acid 100 μM, ghrelin 200 pM) was “completely and reversibly block”.

In the case of CCCCCCCC(=O)OC[C@H](NC(=O)[C@H](CO)NC(=O)CN)C(=O)N[C@@H](Cc1ccccc1)C(=O)N[C@@H](CC(C)C)C(=O)N[C@@H](CO)C(=O)N1CCC[C@H]1C(=O)N[C@@H](CCC(=O)O)C(=O)N[C@@H](Cc1c[nH]cn1)C(=O)N[C@@H](CCC(N)=O)C(=O)N[C@@H](CCCNC(=N)N)C(=O)N[C@H](C(=O)N[C@@H](CCC(N)=O)C(=O)N[C@@H](CCC(N)=O)C(=O)N[C@@H](CCCNC(=N)N)C(=O)N[C@@H](CCCCN)C(=O)N[C@@H](CCC(=O)O)C(=O)N[C@@H](CO)C(=O)N[C@@H](CCCCN)C(=O)N[C@@H](CCCCN)C(=O)N1CCC[C@H]1C(=O)N1CCC[C@H]1C(=O)N[C@@H](C)C(=O)N[C@@H](CCCCN)C(=O)N[C@@H](CC(C)C)C(=O)N[C@@H](CCC(N)=O)C(=O)N1CCC[C@H]1C(=O)N[C@@H](CCCNC(=N)N)C(=O)O)C(C)C [ghrelin], the “NPY-GFP neurons activated (elevated [Ca2+]c)” value is reported as 16 of 16, the “[Ca2+]c response to continuous application” value is reported as “sustained, but reversible [Ca^2+]c increase without apparent desensitization” and the EC50 (10 h) is reported as roughly 0.11 nM.

COc1ccc(Cl)cc1C(=O)NCCc1ccc(S(=O)(=O)NC(=O)NC2CCCCC2)cc1 [glibenclamide] was tested, and the “effect on the action of ghrelin” value (glibenclamide 1 μM, ghrelin 200 pM) was “reversibly inhibited the action of ghrelin”.

COCC(=O)O[C@]1(CCN(C)CCCc2nc3ccccc3[nH]2)CCc2cc(F)ccc2[C@@H]1C(C)C [mibefradil] was tested, and the “effect on ghrelin action” value (mibefradil 5 μM, ghrelin 100 pM) was “markedly suppress ghrelin action”.

With CC[C@H]1/C=C/C=C/C[C@@H](C)[C@H](O)[C@@](C)(O)C(=O)[C@@H](C)[C@H](O)[C@@H](C)C(=O)[C@@H](C)[C@H](O)[C@@H](C)/C=C/C(=O)O[C@@H]2[C@H](C)[C@H](CC1)O[C@]1(CC[C@H](C)[C@H](C[C@@H](C)O)O1)[C@H]2C [oligomycin] the “effect on [Ca2+]c when applied alone” value (oligomycin 50 nM) was “increased [Ca^2+]c”.

In the case of [D-lys3]-GHRP-6, the “effect … ([Ca2+]c increase)” value is reported as “blocked reversibly”.
